Test results taken from PubChem BioAssay AID624296 (National Center for Advancing Translational Sciences (NCATS), 2012).
Where “and” joins values, the source holds several entries; their conditions need not be identical. Identical values can stand only once. The whole screen tested about 350,000 compounds, of which about 9,900 (2.8%) were called active. This list was built around the results that the source calls inconclusive (neither active nor inactive); the mix of calls is not that of the screen. Calls come from the whole dose curve; as a rule, active = well fitted activation curve with a large enough effect; inconclusive = small, poorly fitted or top-dose-only effect; inactive = no such curve, though single readings can be large or run the other way. Potencies beside an inconclusive call are fits to weak or partial responses and may not hold up.

Assay: A quantitative high throughput screen for small molecules that induce DNA re-replication in MCF 10a normal breast cells. For activity, positive = re-replication: % of control where 0% means no effect. Note: nearly all actives have a fitted effect of over 50% in size.
Details: MCF 10A DNA re-replication, Hoechst nuclear intensity, 48 h; activity, positive = re-replication: at 46.1 µM (top of the series)
Potency is the fitted concentration of half-maximal effect; tags give direction and shape of the fitted curve.

| Compound | Potency | activity, positive = re-replication |
| --- | --- | --- |
| CCN(CC)c1ccc(/C=C(/C#N)c2nc3ccc(C)cc3[nH]2)c(OC(C)C)c1 | inconclusive: 20.6 µM [activator, single point] | – |
| CC(=C/c1ccccc1)/C=N/NC(=O)c1ccc2nc[nH]c2c1 | inconclusive: 18.4 µM [activator, partial curve, poor fit] | – |
| C/C(=N\NC(=O)COc1ccccc1-c1ccccc1)c1ccccn1 | – | inactive: 18.1% |
| O=C1C(Cl)=C(N2CCCCC2)C(=O)C(Cl)=C1c1cnc(N2CCCCC2)s1 | active: 5.8 µM | – |
| COC(=O)c1cc2c(N)c(C(=O)c3ccc(Cl)cc3)sc2nc1C(OC)OC | active: 20.6 µM | – |
| O=C(NNc1c([N+](=O)[O-])cc(C(F)(F)F)cc1[N+](=O)[O-])c1ccco1 | – | inactive: -2.45% |
| Cc1ccccc1-c1nc(SCc2cccnc2)c2c(=O)n(C)c(=O)n(C)c2n1 | – | inactive: 7.28% |
| COCCn1c(C)cc(/C=C(\C#N)C(=O)OC(C)C(=O)Nc2ccc(NC(C)=O)cc2)c1C (centres undefined) | inconclusive: 29.1 µM [activator, single point] | – |
| CN1CCN(Cc2nc3ccccc3c(=O)n2Cc2nc(-c3ccc4ccccc4c3)cs2)CC1 | inconclusive: 20.6 µM [activator, single point] and inconclusive: 29.1 µM [activator, single point] | – |
| OC(CNC1CCCC1)COc1ccc(Cl)cc1 (centres undefined) | – | inactive: 3.27% |
| Clc1ccc(Nc2nc3ccccc3n3nnnc23)cc1 | inconclusive: 29.1 µM [activator, single point] | – |
| C/C(=N\NC(=O)c1cccc(S(=O)(=O)N2CCOCC2)c1)c1ccc(O)cc1 | – | inactive: -2.01% |
| C=CCN1C(=O)/C(=C/C=C2/N(CC)c3ccc(S(=O)(=O)N(C)C)cc3N2CC)SC1=S | inconclusive: 18.4 µM [activator, partial curve, poor fit] | – |
| Cc1c(SCCO)c(=O)[nH]c2cc3c(cc12)OCO3 | – | inactive: -1.02% |
| CCNc1cc2c(cc1O)CCC1C2CCC2(C)C(O)CCC12 (centres undefined) | inconclusive: 20.6 µM [activator, single point] | – |
| COc1cccc(CN2CCC(Oc3ccc(C(=O)N4CCCCC4)cc3)CC2)c1 | inconclusive: 16.4 µM [activator, partial curve, poor fit] | – |
| CCCC(C)C(=O)Nc1ncc(S(=O)(=O)c2ccc([N+](=O)[O-])cc2)s1 (centres undefined) | inconclusive: 16.4 µM [activator, partial curve, poor fit] | – |
| O=C(c1noc2c1CCCC2)N1CCC(CO)(Cc2ccccc2Cl)CC1 | inconclusive: 10 µM [activator, partial curve, poor fit] | – |
| CN(CC(=O)Nc1ccc(Cl)c(S(=O)(=O)N2CCOCC2)c1)C(=O)c1cccs1 | – | inactive: 2.98% |
| COc1ccccc1/C=C\C(=O)NCC(=O)N/N=C(/C)c1cccc([N+](=O)[O-])c1 | – | inactive: 13.4% |
| CCOC(=O)C1CCCN(C(=O)c2ccc3nc(-c4cccc(OC)c4)oc3c2)C1 (centres undefined) | inconclusive: 7.31 µM [activator, partial curve] | – |
| COc1ccc(C(=O)NC2CC3CCCC(C2)N3Cc2ccccc2)cc1OC (centres undefined) | inconclusive: 7.31 µM [activator, single point] | – |
| CCc1nnc(NC(=O)CSc2nc3cc4c(cc3cc2CC)OCCO4)s1 | inconclusive: 20.6 µM [activator, partial curve, poor fit] | – |

| Compound | Potency | activity, positive = re-replication |
| --- | --- | --- |
| CC(C)(C)C1CCc2onc(C(=O)NC3CCCC3)c2C1 (centres undefined) | inconclusive: 0.116 µM [activator, full curve, poor fit] | – |
| COc1ccc(NC(=O)CN(C)CC(=O)Nc2cccc(C(C)=O)c2)cc1 | inconclusive: 6.51 µM [activator, single point] | – |
| O=C(CCNS(=O)(=O)c1ccccc1F)N1CCN(C(c2ccccc2)c2ccccc2)CC1 | inconclusive: 9.2 µM [activator, partial curve, poor fit] | – |
| Cn1c(Oc2ccc(Cl)cc2)c(C=O)c2ccccc21 | inconclusive: 25.1 µM [activator, single point] | – |
| CCCCc1ccc(NC(=O)CSCc2cc(=O)[nH][nH]2)cc1 | active: 12.6 µM | – |
| CCCOc1ccc(C(=O)N(CC(C)C)c2c(N)n(Cc3ccccc3)c(=O)[nH]c2=O)cc1 | inconclusive: 29.1 µM [activator, single point] | – |
| Cc1cc(C)c(NC(=O)C[N+](C)(C)CC(O)COc2cccc3ccccc23)c(C)c1 (centres undefined) | inconclusive: 29.1 µM [activator, single point] | – |
| CCOC(=O)c1cc2c(C)n(-c3ccc(N(C)C)cc3)c(C)c2cc(C(=O)OCC)c1=O | inconclusive: 8.2 µM [activator, partial curve, poor fit] | – |
| CCOC(=O)c1cnc2c(OC)cccc2c1N1CC(C)CC(C)C1 (centres undefined) | inconclusive: 2.06 µM [activator, full curve, poor fit] | – |
| Cc1cccc(NC(=S)N(CCCN2CCCC2)Cc2cccn2Cc2ccc(Cl)cc2)c1 | inconclusive: 29.1 µM [activator, single point] | – |
| O=C(CSc1ncnc2c1nnn2Cc1ccccc1F)N1CCN(c2ccccc2)CC1 | active: 20.6 µM | – |
| COc1cc(/C=N/N2C(=O)CSC2=S)cc(Br)c1O | – | inactive: 1.81% |
| O=C(COC(=O)c1cc(-c2ccccc2)nc2ccccc12)Nc1ccc2c(c1)OCO2 | active: 5.17 µM | – |
| CC1(COc2ccc(CC3SC(=O)NC3=O)cc2)CCCCC1 (centres undefined) | inconclusive: 8.41 µM [activator, full curve] | – |
| COc1ccc(-c2cc(=O)c3ccccc3s2)cc1 | – | inactive: -12.5% |
| O=C(NCC1CCCO1)C(c1cccs1)N(C(=O)c1ccc(-c2ccccc2)[nH]1)C1CCCC1 (centres undefined) | – | inactive: 11.6% |
| Cc1cc(C)c(S(=O)(=O)N(C2=NCCS2)S(=O)(=O)c2c(C)cc(C)cc2C)c(C)c1 | – | inactive: 6.25% |
| COc1ccc(-c2nn(-c3ccccc3)cc2C(=O)OCC(=O)c2ccc(C)c([N+](=O)[O-])c2)cc1 | inconclusive: 14.6 µM [activator, partial curve, poor fit] | – |
| COc1cccc(/C=C2\SC(=S)N(CC3CCCO3)C2=O)c1 (centres undefined) | inconclusive: 5.8 µM [activator, full curve, poor fit] | – |
| Cc1cc(Nc2ccc(Cl)cc2)n(-c2cccc(Cl)c2)n1 | active: 25.9 µM | – |
| Cc1ccc(-c2cc(C(=O)n3cnc4ccccc43)c3ccccc3n2)cc1C | – | inactive: 15.3% |
| CCc1cccc(N(C(=O)c2csnn2)C(C(=O)NC2CCCC2)c2cccnc2)c1 (centres undefined) | – | inactive: -0.694% |
| NC(=S)NN=CCn1cc([N+](=O)[O-])c(=O)[nH]c1=O | – | inactive: -0.962% |

| Compound | Potency | activity, positive = re-replication |
| --- | --- | --- |
| COc1ccccc1-c1nnc(SCC(=O)Nc2nc(-c3ccccc3)cs2)n1C | inconclusive: 25.9 µM [activator, single point] | – |
| COc1ccc(OC)c2c1cc(C(=O)N[C@@H](C)C(=O)N[C@@H](C(=O)O)c1ccccc1)n2C | – | inactive: 1.82% |
| CCOc1cc(N2CCOCC2)c(OCC)cc1NC(=O)CSc1nnc(N)s1 | – | inactive: -27.8% |
| CC(C)C(=O)Nc1ncc(Cc2cccc(Cl)c2)s1 | – | inactive: 6.2% |
| COc1ccc(Oc2ccc(C(F)(F)F)cc2NC(=O)c2ccc(F)cc2)cc1 | – | inactive: -2.23% |
| N#CCCN(C(=O)CSc1n[nH]c(=O)[nH]c1=O)c1ccccc1 | inconclusive: 29.1 µM [activator, single point] | – |
| CCOC(=O)c1ccc(-c2ccc(C3Nc4ccccc4C(=O)N3O)o2)cc1 (centres undefined) | inconclusive: 23.1 µM [activator, single point] | – |
| N#C/C(=C\c1c(N2CCC(C(N)=O)CC2)nc2ccccn2c1=O)S(=O)(=O)c1ccc(Cl)cc1 | – | inactive: 7.1% |
| CN(C)CCc1c[nH]c2ccc(CS(=O)(=O)N3CCCC3)cc12 | – | inactive: -0.162% |
| CN1CCN(CC(O)COC(c2ccc(Cl)cc2)c2ccc(Cl)cc2)CC1 (centres undefined) | active: 20.6 µM | – |
| Cc1cccc(OCC(=O)O/N=C(\N)c2ccccn2)c1C | inconclusive: 17.8 µM [activator, partial curve, poor fit] | – |
| Cc1ccc(C(=O)OCC(=O)NC2CCCCC2)cc1S(=O)(=O)N1CCCCC1 | inconclusive: 29.1 µM [activator, partial curve, poor fit] | – |
| CCNC(=S)N1CCC(C(O)(c2ccccc2)c2ccccc2)CC1 | – | inactive: -4.44% |
| Cc1[nH]c2ccccc2c1C(=O)C(=O)N1CCN(c2ccccc2Cl)CC1 | inconclusive: 23.1 µM [activator, single point] | – |
| Cc1ccc(NC(=O)CC2S/C(=N/N=C3/NC(=O)CS3)NC2=O)cc1 (centres undefined) | – | inactive: -3.13% |
| N#CCN1CCN(CC(=O)Nc2ccc(OCc3ccccc3)cc2)CC1 | inconclusive: 0.731 µM [activator, full curve, poor fit] | – |
| CCN(C[C@H]1N[C@@](CC)(C(=O)OC)[C@H]2C(=O)N(Cc3ccccc3)C(=O)[C@@H]12)S(=O)(=O)c1ccc(F)cc1 | – | inactive: 3.85% |
| CC(C)C(=O)c1cc2c(cc1NC(=O)c1cccs1)OCCO2 | inconclusive: 16.4 µM [activator, single point] | – |
| COc1ccc(CCn2c(NN)nc3c2c(=O)[nH]c(=O)n3C)cc1 | inconclusive: 14.6 µM [activator, partial curve] | – |
| Cc1ccc(NC(=O)C2CC(=O)N(C(C)c3ccccc3)C2)cc1 (centres undefined) | – | inactive: 2.33% |
| CCN(CC)c1ccc2c(Cl)cc(=O)oc2c1 | inconclusive: 22.4 µM [activator, partial curve, poor fit] | – |
| COc1ccc(NS(=O)(=O)c2ccc(C)c(NC(=O)NC3CCCCC3)c2)cc1 | inconclusive: 29.1 µM [activator, partial curve, poor fit] | – |
| COc1ccc(NC(=S)N(CCCN2CCCC2)Cc2cccn2Cc2ccc(Cl)cc2)cc1Cl | active: 20.6 µM | – |
